From PubChem BioAssay AID2147 (National Center for Advancing Translational Sciences (NCATS), 2009)
Screen size: about 230,000 compounds; about 3,600 (1.6%) were called active. This list was built around the results that the source calls inconclusive (neither active nor inactive); the mix of calls is not that of the screen. Calls come from the whole dose curve; as a rule, active = well fitted inhibition curve with a large enough effect (not every such curve was filed as active); inconclusive = small, poorly fitted or top-dose-only effect, or another doubt; inactive = no such curve, though single readings can be large or run the other way. Potencies beside an inconclusive call are fits to weak or partial responses and may not hold up.
Note: nearly all actives have a fitted effect of over 50% in size.
Potency is the fitted concentration of half-maximal effect; tags give direction and shape of the fitted curve.
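Throughout, for activity change, negative = inhibition: 0% = wells with enzyme and -100% = buffer wells without enzyme.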

Each compound was assayed against Lysine-specific demethylase 4E (Homo sapiens) (UniProt B2RXH2) (assay: qHTS Assay for Inhibitors of Human Jumonji Domain Containing 2E (JMJD2E)). Conditions: JMJD2E catalytic domain, FDH-coupled NADH fluorescence (FDH is formaldehyde dehydrogenase); series mostly up to 57.1 µM; activity change, negative = inhibition: at the top concentration.
Chain of UniProt B2RXH2 (B2RXH2 whole entry, looked up, the tested form may be a part): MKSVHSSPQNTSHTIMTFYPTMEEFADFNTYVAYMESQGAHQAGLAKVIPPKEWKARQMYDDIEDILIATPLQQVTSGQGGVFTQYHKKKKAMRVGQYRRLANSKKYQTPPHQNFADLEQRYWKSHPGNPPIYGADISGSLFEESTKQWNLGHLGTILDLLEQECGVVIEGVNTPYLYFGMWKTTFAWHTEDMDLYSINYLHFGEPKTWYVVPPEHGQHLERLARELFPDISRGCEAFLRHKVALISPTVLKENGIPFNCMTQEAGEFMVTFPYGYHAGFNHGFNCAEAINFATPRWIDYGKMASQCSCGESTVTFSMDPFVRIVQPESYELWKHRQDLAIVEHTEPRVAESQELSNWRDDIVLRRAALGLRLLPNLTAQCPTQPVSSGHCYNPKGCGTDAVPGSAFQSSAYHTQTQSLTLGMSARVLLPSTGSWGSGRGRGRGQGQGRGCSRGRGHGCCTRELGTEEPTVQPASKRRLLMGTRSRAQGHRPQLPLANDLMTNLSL
`O=C(N/N=C/c1cccc(O)c1)c1ccccc1O` was tested, and the “activity change, negative = inhibition” value was inactive: -4.65%. With `CC1(C)CC(=O)C2=C(C1)N(N1CCOCC1)C(N)=C(C#N)C2c1cccs1` (stereo unspecified) the “activity change, negative = inhibition” value was inactive: -8.21%. For `CS(=O)(=O)C1=NSC2=NC(=O)/C(=C\c3cccn3-c3ccc(Cl)cc3)C(=N)N21`, the Potency was inconclusive: 39.8 µM [inhibitor, single point]. With `CC1(C(=O)N/N=C/c2ccc([N+](=O)[O-])o2)CC1(Br)Br` (stereo unspecified) the “activity change, negative = inhibition” value was inactive: -0.182%. `Cc1nn(Cc2ccc(F)cc2)c2sc(C(=O)Nc3ccc(N4CCOCC4)cc3N3CCOCC3)cc12` was tested, and the Potency was inconclusive: 39.8 µM [inhibitor, single point]. With `COCCN(C(C)=O)c1nnc(-c2ccccn2)s1` the Potency was inconclusive: 25.1 µM [inhibitor, partial curve]. For `CCOC(=O)N1CCN(S(=O)(=O)c2ccc(OC)c(Cl)c2Cl)CC1`, the “activity change, negative = inhibition” value was inactive: 4.65%. With `COc1ccc(-c2cc(C(F)(F)F)nc(S(=O)(=O)CCCC(=O)Nc3cccc(O)c3)n2)cc1OC` the “activity change, negative = inhibition” value was inactive: -20.4%. With `Cc1cccc(Nc2nc3ccccc3n3nnnc23)c1` the Potency was inconclusive: 35.5 µM [inhibitor, single point]. In the case of `Cc1ccc2nsnc2c1NC(=O)COc1ccccc1F`, the Potency is reported as inconclusive: 35.5 µM [inhibitor, single point]. `Cc1cc(C)c2sc(N(CCCN(C)C)C(=O)c3ccc(Br)s3)nc2c1` was tested, and the Potency was inconclusive: 39.8 µM [inhibitor, single point]. In the case of `CN(C)C(=S)Nc1ccc(Br)cc1Cl`, the “activity change, negative = inhibition” value is reported as inactive: 9.36%. With `COC(=O)Cc1c(C)c2cc(Cl)c(OC(=O)c3ccco3)cc2oc1=O` the Potency was inconclusive: 28.2 µM [inhibitor, partial curve]. `Cc1ccn2c(=O)c(C(=O)O)cnc2c1` was tested, and the Potency was inconclusive: 28.2 µM [inhibitor, partial curve]. With `CCn1c(C)c2c(C)nnc(C)c2c1C` the Potency was inconclusive: 11.2 µM [inhibitor, partial curve]. `Cc1ccc(-c2cc3ccccc3nc2N2CCOCC2)cc1` was tested, and the Potency was inconclusive: 28.2 µM [inhibitor, partial curve]. In the case of `CC(C)CN(CC(C)C)S(=O)(=O)N1CCC(C(=O)N2CCc3ccccc3C2)CC1`, the “activity change, negative = inhibition” value is reported as inactive: 0.228%. `Nc1nnc(CC(=O)N/N=C/c2cc([N+](=O)[O-])cc(Br)c2O)s1` was tested, and the Potency was active: 11.2 µM. In the case of `COc1ccccc1C(=O)NCc1ccncc1`, the “activity change, negative = inhibition” value is reported as inactive: -2.37%. `CCc1n[nH]c(=S)n1/N=C/c1ccc(N(CC)CC)cc1` was tested, and the Potency was inconclusive: 31.6 µM [inhibitor, partial curve]. `CCN(CC)c1ccc(C2C(C(=O)Nc3ccccn3)=C(C)NC3=C2C(=O)CC(C)(C)C3)cc1` (stereo unspecified) was tested, and the Potency was inconclusive: 28.2 µM [inhibitor, partial curve]. `Cc1cccc(NC(=S)N(CCCN(C)C)Cc2cc3cc4c(cc3[nH]c2=O)OCO4)c1` was tested, and the Potency was inconclusive: 35.5 µM [inhibitor, partial curve]. For `CN(C)C=NC(=O)c1cn(-c2ccc(F)cc2)c(=O)c2ccccc12`, the “activity change, negative = inhibition” value was inactive: 0.857%. With `COc1ccc(NC2c3ccccc3C(=O)N2Cc2ccc3c(c2)OCO3)cc1` (stereo unspecified) the “activity change, negative = inhibition” value was inactive: 0.394%. `O=C(c1ccccc1)N1CCN(c2ccc(NCc3ccc4c(c3)OCO4)cc2)CC1` was tested, and the “activity change, negative = inhibition” value was inactive: 1.6%. With `Cc1ccccc1-c1nc(CN2CCC(C(=O)NCCC3=CCCCC3)CC2)c(C)o1` the “activity change, negative = inhibition” value was inactive: 6.67%. `COc1cc([N+](=O)[O-])cc(/C=N/NC(=O)c2cccnc2)c1O` was tested, and the Potency was active: 8.91 µM. `Cc1ccc(OCCN(C)C)c([N+](=O)[O-])c1` was tested, and the Potency was inconclusive: 35.5 µM [inhibitor, single point]. For `CC(C)C[C@H](CO)Nc1nc(Nc2cccc(Cl)c2)c2ncn(C(C)C)c2n1`, the Potency was inconclusive: 28.2 µM [inhibitor, partial curve]. With `COc1ccc(C(=O)Nc2ccc(S(=O)(=O)NC(C)(C)C)cc2)cc1[N+](=O)[O-]` the “activity change, negative = inhibition” value was inactive: -7.89%. With `Cc1cc(=O)[nH]c(SCCOc2ccc3c(c2)CCC3)n1` the “activity change, negative = inhibition” value was inactive: -2.98%. In the case of `COc1ccc(-c2ccc(-c3noc(-c4ccco4)n3)c(OC)n2)cc1`, the Potency is reported as inconclusive: 31.6 µM [inhibitor, partial curve]. `COc1cc(CNn2c(C)n[nH]c2=S)cc(Br)c1OCc1ccc(F)cc1` was tested, and the “activity change, negative = inhibition” value was inactive: 4.93%. `Cc1nc(SCC(=O)NCc2ccccc2)c2oc3ccccc3c2n1` was tested, and the “activity change, negative = inhibition” value was inactive: -1.53%. `Cc1c(C(=O)N2CCOCC2)cc(C(C)(C)C)n1-c1ccccc1` was tested, and the “activity change, negative = inhibition” value was inactive: 14.4%. With `O=C(Cn1nc2sc3ccccc3n2c(=O)c1=O)c1ccc(Cl)cc1` the “activity change, negative = inhibition” value was inactive: -1.1%.
